# Test results from a collection of fitness landscapes (doi:10.1126/science.1257360).
# This is one part of the list.
# B1: PhoQ; a variant is named by its letters at X, in order, P23837 (parent)
# chain: MKKLLRLFFPLSLRVRFLLATAAVVLVLSLAYGMVALIGYSVSFDKTTFRLLRGESNLFYTLAKWENNKLHVELPENIDKQSPTMTLIYDENGQLLWAQRDVPWLMKMIQPDWLKSNGFHEIEADVNDTSLLLSGDHSIQQQLQEVREDDDDAEMTHSVAVNVYPATSRMPKLTIVVVDTIPVELKSSYMVWSWFIYVLSANLLLVIPLLWVAAWWSLRPIEALAKEVRELEEHNRELLNPATTRELTSLVRNLNRLLKSERERYDKYRTTLTDLTHSLKTPLXXLQXXLRSLRSEKMSVSDAEPVMLEQISRISQQIGYYLHRASMRGGTLLSRELHPVAPLLDNLTSALNKVYQRKGVNISLDISPEISFVGEQNDFVEVMGNVLDNACKYCLEFVEISARQTDEHLYIVVEDDGPGIPLSKREVIFDRGQRVDTLRPGQGVGLAVAREITEQYEGKIVAGESMLGGARMEVIFGRQHSAPKDE
# Variants of: B1
# Assay: enrichment ratio after two sorts for PhoP signalling (ratio (wild type AVST 3.29)); higher = more functional
# Conditions: with PhoP (E. coli)
row,Variant,enrichment ratio
1,KIKL,≤ 0.25
2,GIVT,2.14
3,MYFM,≤ 0.25
4,IGRM,≤ 0.25
5,YPEL,≤ 0.25
6,KHMI,≤ 0.25
7,DPWS,≤ 0.25
8,QIMD,≤ 0.25
9,KNFN,≤ 0.25
10,DGRM,≤ 0.25
11,WDKW,≤ 0.25
12,RKKP,≤ 0.25
13,AGCV,23.6
14,LIVS,≤ 0.25
15,SDYT,≤ 0.25
16,IGAQ,≤ 0.25
17,RFTR,≤ 0.25
18,NRDW,≤ 0.25
19,KLGW,≤ 0.25
20,VELV,3.27
21,DDEC,≤ 0.25

row,Variant,enrichment ratio
1,ENGP,≤ 0.25
2,SIRY,≤ 0.25
3,VITI,≤ 0.25
4,AETY,16
5,KVAK,≤ 0.25
6,MPTS,≤ 0.25
7,WGNH,≤ 0.25
8,GDAP,≤ 0.25
9,YAGN,≤ 0.25
10,LGKD,≤ 0.25
11,LKCN,≤ 0.25
12,YRAD,≤ 0.25
13,MDTF,≤ 0.25
14,STQN,≤ 0.25
15,TKSY,3.1
16,SGMN,30.2
17,PYYV,≤ 0.25
18,YVFF,≤ 0.25
19,QTAS,≤ 0.25
20,QFCW,≤ 0.25
21,SFLQ,2.41

row,Variant,enrichment ratio
1,YCRF,≤ 0.25
2,VQKL,≤ 0.25
3,QDPQ,≤ 0.25
4,KINT,0.594
5,GFIH,≤ 0.25
6,QQCD,≤ 0.25
7,LIFE,≤ 0.25
8,QQNV,≤ 0.25
9,QSWH,4.01
10,EKTS,≤ 0.25
11,DYKY,≤ 0.25
12,DGHC,≤ 0.25
13,HPVH,≤ 0.25
14,HHFR,≤ 0.25
15,VVMC,≤ 0.25
16,NARS,≤ 0.25
17,RKHS,≤ 0.25
18,HYGI,≤ 0.25
19,DAMC,≤ 0.25
20,KSIE,≤ 0.25
21,SANG,≤ 0.25

row,Variant,enrichment ratio
1,GDVS,0.682
2,EYDL,≤ 0.25
3,IVWV,≤ 0.25
4,WFAC,≤ 0.25
5,EPDP,≤ 0.25
6,DWKM,≤ 0.25
7,FDNT,≤ 0.25
8,KCGD,≤ 0.25
9,EMGH,≤ 0.25
10,NSTR,≤ 0.25
11,AIWD,≤ 0.25
12,RIHP,≤ 0.25
13,KRHY,≤ 0.25
14,GHLN,≤ 0.25
15,EDFV,≤ 0.25
16,TEKD,≤ 0.25
17,WIYT,≤ 0.25
18,GLGC,≤ 0.25
19,GSAR,≤ 0.25
20,QGPG,≤ 0.25
21,KRPM,≤ 0.25
